The IC50 is the concentration at which inhibition is half-maximal. A lower IC50 goes with greater potency. Broadly, the clearance is the rate of elimination divided by the concentration. A lower clearance goes with a low capacity for elimination. The term Vd denotes the apparent volume that relates the amount in the body to the concentration in plasma or blood. The term half-life denotes how long it takes for the measured level to halve. Lower therefore signals rapid decline. Broadly, the bioavailability is the share of a dose that reaches the circulation, judged against a reference dose that is usually intravenous. A low value points to poor availability. As usually defined, the Papp A→B is the apparent permeability from the apical to the basolateral side of a cell layer. A higher Papp A→B goes with fast passage. As usually defined, the fraction unbound is the share of the substance not bound to proteins or other matrix. In general, inhibition refers to the change of the read-out against control, counted positive when it falls. As a reminder, the kinetic solubility is the concentration staying in solution when a stock, usually in DMSO, is diluted into the medium.

Series [1] deals with Bromodomain-containing protein 4 (Homo sapiens, UniProt O60885).
A short description of series [2]: in vitro. As to conditions: mouse, microsomes.
The nature of series [3]: in vitro. Conditions: rat, microsomes.
Series [4] in a line: in vitro. As to conditions: human, microsomes.
Series [5] is described as follows: in vivo. Conditions: CD-1, mouse, iv, 1 mg/kg.
Series [6] is described as follows: in vivo. Conditions: CD-1, mouse, iv, 1 mg/kg. This is another data set of the same source.
A short description of series [7]: in vivo. As to conditions: CD-1, mouse.
Series [8] is described as follows: in vivo. As to conditions: CD-1, mouse, po, 5 mg/kg.
A short description of series [9]: in vitro. Conditions: dog, MDCK.
Series [10] in a line: in vitro. As to conditions: mouse, plasma.
Series [11] is described as follows: in vitro. Conditions: rat, plasma.
Series [12] can be described thus: in vitro. As to conditions: human, plasma.
A short description of series [13]: in vitro. As to conditions: mouse, hepatocytes.
Series [14] is described as follows: in vitro. Conditions: rat, hepatocytes.
The nature of series [15]: in vitro. As to conditions: human, hepatocytes.
Another series addresses hERG (KCNH2) (Homo sapiens, UniProt Q12809). Kind of series: in vitro.
Another series is described as follows: physchem. As to conditions: buffer, pH 7.4.

≈ marks a conversion by molar mass, not a printed value.

Sequence of hERG (KCNH2) (Q12809 whole entry): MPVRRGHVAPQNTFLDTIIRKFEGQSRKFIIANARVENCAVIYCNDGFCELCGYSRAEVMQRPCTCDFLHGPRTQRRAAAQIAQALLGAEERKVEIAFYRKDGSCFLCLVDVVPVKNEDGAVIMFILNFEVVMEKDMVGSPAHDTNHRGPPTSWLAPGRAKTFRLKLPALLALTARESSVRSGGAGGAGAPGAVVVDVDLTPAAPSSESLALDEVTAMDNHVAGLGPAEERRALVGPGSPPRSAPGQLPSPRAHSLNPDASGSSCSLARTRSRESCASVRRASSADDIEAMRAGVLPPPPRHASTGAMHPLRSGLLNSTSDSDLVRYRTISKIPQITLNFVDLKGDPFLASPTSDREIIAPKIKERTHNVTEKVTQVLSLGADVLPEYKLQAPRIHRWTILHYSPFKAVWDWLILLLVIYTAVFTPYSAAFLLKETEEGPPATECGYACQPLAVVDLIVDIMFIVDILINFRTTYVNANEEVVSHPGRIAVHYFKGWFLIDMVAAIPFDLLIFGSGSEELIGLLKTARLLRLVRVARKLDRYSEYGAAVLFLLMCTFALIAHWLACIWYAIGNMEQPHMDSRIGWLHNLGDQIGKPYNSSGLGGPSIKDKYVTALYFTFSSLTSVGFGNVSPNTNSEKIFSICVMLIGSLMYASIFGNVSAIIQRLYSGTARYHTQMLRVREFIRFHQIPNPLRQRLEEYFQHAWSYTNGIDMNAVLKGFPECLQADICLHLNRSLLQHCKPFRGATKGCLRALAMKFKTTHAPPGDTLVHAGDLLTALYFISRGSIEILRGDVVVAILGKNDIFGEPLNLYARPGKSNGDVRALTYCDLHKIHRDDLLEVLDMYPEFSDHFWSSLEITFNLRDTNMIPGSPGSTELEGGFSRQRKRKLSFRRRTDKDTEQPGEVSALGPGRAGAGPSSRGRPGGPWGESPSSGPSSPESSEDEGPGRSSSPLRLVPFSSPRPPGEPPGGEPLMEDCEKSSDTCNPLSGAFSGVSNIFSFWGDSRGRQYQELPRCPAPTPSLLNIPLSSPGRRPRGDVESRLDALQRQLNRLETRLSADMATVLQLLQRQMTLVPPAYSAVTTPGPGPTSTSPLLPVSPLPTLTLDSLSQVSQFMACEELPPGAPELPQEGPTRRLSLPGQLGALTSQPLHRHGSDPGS

Molecule `CC(=O)N1CCc2c(c(-c3nccc4ccccc34)nn2C2CCOCC2)C1` showed an IC50 in [1] above 20 µM.
On to `CC(=O)N1CCc2c(c(-c3cccc4c3CC(=O)NC4)nn2C2CCOCC2)C1`, for which the IC50 in series [1] was above 20 µM.
As to `CC(=O)N1CCc2c(c(-c3cccc4cc(-c5cnn(C)c5C#N)ncc34)nn2C2CCOCC2)C1`, the CLhep predicted is 36 mL/min/kg in the series “in vitro [2]”, 20 mL/min/kg in the series “in vitro [3]” and 11 mL/min/kg in “in vitro [4]”.
For the molecule `CC(=O)N1CCc2c(c(-c3cc(Cl)cc4ccncc34)nn2C2CCOCC2)C1`, the IC50 in series [1] came to 19 µM.
In [1], `CC(=O)N1CCc2c(c(-c3cccc4cc(-c5cnn(C)c5C(F)F)ncc34)nn2C2CCOCC2)C1` came in with an IC50 of 3.3 µM. The CLhep predicted is 51 mL/min/kg in “in vitro [2]”, 22 mL/min/kg in “in vitro [3]” and 16 mL/min/kg in the series “in vitro [4]”.
In the series “in vivo [5]”, `CNC(=O)c1ccc(-c2cc3cccc(-c4nn(C5CCOCC5)c5c4CN(C(C)=O)CC5)c3cn2)cn1` registered a clearance of 18 mL/min/kg. The molecule further yielded a Vd in the series “in vivo [6]” of 2.8 L/kg. Besides, the half-life in the series “in vivo [7]” is 2 h. Also, the bioavailability in “in vivo [8]” turned out to be 50%. Further, the CLhep predicted in the series “in vitro [2]” is 36 mL/min/kg; in the series “in vitro [3]” it was 15 mL/min/kg; in the series “in vitro [4]”, 9.3 mL/min/kg; in “in vitro [13]” it was below 21 mL/min/kg; in the series “in vitro [14]” it was 10 mL/min/kg; in the series “in vitro [15]”, below 6 mL/min/kg. Further, the Papp A→B in the series “in vitro [9]” turned out to be 12 ×10⁻⁶ cm/s. Moreover, the fraction unbound was 0.1 in the series “in vitro [10]”, 0.04 in the series “in vitro [11]” and 0.05 in “in vitro [12]”. Moreover, the inhibition at 1 h, 10 µM on hERG (KCNH2) was -5%.
For the molecule `CC(=O)N1CCc2c(c(-c3cccc4c(Cl)cncc34)nn2C2CCOCC2)C1`, the IC50 in [1] is 14 µM.
With `CC(=O)N1CCc2c(c(-c3cccc4cc(-c5cn(C)nc5C(F)F)ncc34)nn2C2CCOCC2)C1`, the IC50 in series [1] is 2.8 µM. In addition, the CLhep predicted in “in vitro [2]” is 38 mL/min/kg; in “in vitro [4]”, 13 mL/min/kg.
Regarding `CC(=O)N1CCc2c(c(-c3cccc4c(CO)cncc34)nn2C2CCOCC2)C1`, the IC50 in series [1] was above 20 µM.
Regarding `CC(=O)N1CCc2c(c(-c3ccc(C#N)c4ccncc34)nn2C2CCOCC2)C1`, the IC50 in series [1] was above 20 µM.
The same measure, in the same setting: the result for `CCc1cncc2c(-c3nn(C4CCOCC4)c4c3CN(C(C)=O)CC4)cccc12` reads 15 µM; that for `CC(=O)N1CCc2c(c(-c3ccc(CO)c4ccncc34)nn2C2CCOCC2)C1`, above 20 µM.
Molecule `CC(=O)N1CCc2c(c(-c3ccc(Cl)c4ccncc34)nn2C2CCOCC2)C1` gave an IC50 in [1] above 20 µM.
The same measure, in the same setting: the result for `CCc1cc(-c2nn(C3CCOCC3)c3c2CN(C(C)=O)CC3)c2cnccc2c1` reads 7.8 µM; that for `CC(=O)N1CCc2c(c(-c3ccc(C)c4ccncc34)nn2C2CCOCC2)C1`, 7.7 µM; that for `COc1cc(-c2nn(C3CCOCC3)c3c2CN(C(C)=O)CC3)c2cnccc2c1`, 8.9 µM.
The same measure, in the same setting: in the case of `CC(=O)N1CCc2c(c(-c3cccc4c(C#N)cncc34)nn2C2CCOCC2)C1` it was above 20 µM.
In series [1], `CNC(=O)N1CCc2c(c(-c3cccc4cc(-c5cnn(C)c5)c(C(F)F)cc34)nn2C2CCOCC2)C1` came in with an IC50 of 5.1 µM. For the same molecule, the clearance in “in vivo [5]” was 5.2 mL/min/kg. In “in vivo [6]”, the Vd came out at 0.6 L/kg. Moreover, the half-life in the series “in vivo [7]” is 1.4 h. Also, in “in vivo [8]”, the bioavailability is 73%. Besides, the CLhep predicted in the series “in vitro [2]” was 35 mL/min/kg; in “in vitro [3]”, 18 mL/min/kg; in the series “in vitro [4]”, 10 mL/min/kg; in the series “in vitro [13]”, below 21 mL/min/kg; in the series “in vitro [14]”, below 10 mL/min/kg; in the series “in vitro [15]” it was below 6 mL/min/kg. In “in vitro [9]”, this molecule had a Papp A→B of 19 ×10⁻⁶ cm/s. Besides, the fraction unbound was 0.06 in the series “in vitro [10]”, 0.06 in “in vitro [11]” and 0.16 in “in vitro [12]”. The molecule further yielded a kinetic solubility in the series “physchem” of 95 µM (≈ 49.5 µg/mL).
Take `CC(=O)N1CCc2c(c(-c3cc(C#N)cc4ccncc34)nn2C2CCOCC2)C1`: in series [1], the IC50 was above 20 µM.

Source of the values: ChEMBL document CHEMBL4184171, “Design and synthesis of a biaryl series as inhibitors for the bromodomains of CBP/P300” (Bioorg Med Chem Lett, 2018).
